Results from the supplement of paper PMC11417369.
The other results are listed elsewhere or left out.

system: PfHDP1 homeodomain (GST-tagged); test: gcPBM binding intensity (ln(normalized median fluorescence intensity)); higher = stronger DNA binding
Outline: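 Binding intensity is defined as the maximum Masliner-normalised natural-log median intensity across replicate spots for either probe orientation. It was measured on an Agilent 4 × 180k array of primer-extended double-stranded 36-bp intergenic genomic probes and negative controls, to which GST-tagged P. falciparum DNA-binding domains made in E. coli were applied for 1 h in 1× PBS with 1% milk, 0.2 mg/ml BSA, 0.5% salmon testes DNA and 0.03% Triton X-100. Detection was by Alexa488 anti-GST antibody and scanning at 488 nm.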

Sequence	gcPBM binding intensity (ln)
AGCACATTATTCAAAAGTACAAATAGGTATTGTATA [XGTACX_site6107]	6.01
TTGTTAATATGATAAAAGAGGAATATTCTCTTCCTA [GTGCAC_negctrl_site659]	5.92
AATATAAAAAAAAAAAAAAAAAAAAAAAAAAAGACA [CACACA_negctrl_site983]	5.97
AAATATTATGTACGCACACACATTTTTAATATATAA [CACACA_site3851]	7.2
TTATTTACAACTTCAAATTATGTGTAATACTACTAT [CACACA_negctrl_site741]	6.34
TAAAAAAAAACTCATGCACACAATATTATGAAAAAG [CACACA_site665]	8.31
TATTTATAAAAAGATTGTACATTTTTTATTATTGTA [XGTACX_site6016]	6.34
ATAAAACAACAAAGAAAATGAAAAAGTAAAAACATA [CACACA_negctrl_site596]	6.63
AAAAAAAAAAAAAAAACACACATATATCTATAATAT [CACACA_site6665]	6.67
CATTATTTATTTTAATGTACTTATTTTTAAATTGGT [XGTACX_site8038]	6.11
TATACAAAATATTTTACACACACATATATATACATA [CACACA_site2616]	7.09
AGTGCATACATGAATTGTACTTTAAAATAAATTCTA [XGTACX_site8156]	8.88
TCCTATAATAACGTCACACATTAAATTTAATAAATT [CACACA_site4506]	6.68
TTACGAATTACATATTGTACATATGCACAATTTTAA [XGTACX_site6802]	8.91
AATTAAAATACAAATGTATGCATGTCTCATATAGAA [TGCATGCA_site822]	6.25
TACATAATTTAAAATTTTATAAGTTGTAATTCGTTT [XGTACX_negctrl_site308]	6.3
ATATCTAAATATATTACACACAGATATCTTCCTATA [CACACA_site3701]	6.8
AACAAATAAAGCTATGACATGTTAAAATTGTTTCAC [XGTACX_negctrl_site67]	6.34
ATTCGTATGAGCATAACACACAATATCGATATTTCT [CACACA_site4165]	7.45
ATAAAGGAATTTTATACACACAACATATAAATATAT [CACACA_site7365]	6.62
AGAGAAAAATATTTGGACAAAAATAATATAATATAT [CACACA_negctrl_site656]	6.55
CATACACCCATACATACACACATACATACACCCATA [CACACA_site5124]	7.08

Sequence	gcPBM binding intensity (ln)
TCTTTTCAATTATCCTATATTCTTTTATTTTTAATT [GTGCAC_negctrl_site326]	6.51
GATAAAGTAAAAATATGTACATATATATTTTAAGTT [XGTACX_site6439]	6.49
AGAAATTATAAATACCTACACACTTATCAAAATAAA [CACACA_site2264]	6.41
TAAGACATGATATATACACACCTTGTTTTAATTTTC [CACACA_site5282]	6.33
TATATCTGTAAATGCACACATATGTGGATATACTTA [CACACA_site5013]	10
TATAAATATAAATACACACACATATAGATTATAGAT [CACACA_site6429]	6.8
TCTAATAATATATACACACACATATATATTTATATA [CACACA_site2032]	6.68
TGCTACATTCTATGTACACACATATACATATATATA [CACACA_site893]	6.49
GTTCATTCATTTTAATGTACAAATTTAACTTTTTCT [XGTACX_site680]	6.06
ATTTATTTATCTAGCTATTCACCATTTTCTTTTGTT [CACACA_negctrl_site1259]	6.56
AAAGTATACAATGACGCATGCATATATATATACATA [TGCATGCA_site429]	6.49
ACTTTTTTGAACAACGTGCACGTATTCATAACAAAA	10.6
ATTAAAAATTATATTTTATAAAAATTAAAAGAAATA [CACACA_negctrl_site65]	6.47
ATCAGATATATATATTGTACATTTATATATAAATCA [XGTACX_site1960]	6.47
ATAGGATGTTTGCACTGTACCAAAAAATGAGCTGCA [XGTACX_site2825]	9.36
ACCCTATTTATATATACACACACATATATAAATAAA [CACACA_site8980]	7.27
CTAATTCGTATATGCTGTACCTTTTTCTTACGACTA [XGTACX_site4392]	6.69
ATATGGAATGATCATAGTACATAATTTAAAATTTTA [XGTACX_site3568]	6.33
AACATATATAATATTTGTACTTATATACAAAATATG [XGTACX_site7502]	6.18
TTTTTTAAAGCCTGTTCATCATCCTTACCTATCAAC [GTGCAC_negctrl_site452]	6.4
TATTTTTTCTTAAACACACACATATAGATTTATAAC [CACACA_site7354]	6.79
TGTCCTTATTGGCACACACACATATAAGAAATTTAA [CACACA_site5724]	6.79

Sequence	gcPBM binding intensity (ln)
CTTAAAAACAAAAATGCACACATAATAAGCATATGT [CACACA_site9149]	9.58
TGAAATTAGATATATACACACATATAGATTTATATG [CACACA_site7619]	6.31
ATTAAACTCATTAAGAGTACAGATAACATTAAAGTA [XGTACX_site8697]	6.25
AAAATTGTGAAAGGGAAGATGATCAAATTGTTAAGG [CACACA_negctrl_site1492]	6.99
TATAATGGTAAAAACACACAAATATGAAGATGTTAA [CACACA_site6479]	6.16
GATGGGCAAATTTACTGTACTTTTATAATATTTTTT [XGTACX_site4830]	6.69
AAAAAAAATTATATTTGTACGCATTAAAAAATCTAA [XGTACX_site1616]	6.35
GTACCTATAAATATTACACACATTTTCATTTTTAAC [CACACA_site7022]	7.13
TTTCATTTTAGAAGTACACACAAAAAATAAAATAAT [CACACA_site2141]	6.68
CTATAATAGAAGTGTACACACATATTTATGTCTGTA [CACACA_site7462]	6.4
TTTTCTTTATTATAATGTACTCACAAATAAATATAA [XGTACX_site7298]	6.65
ATAAATACGATTAATTAGGTTTGTATAAATTAAATT [GTGCAC_negctrl_site635]	6.14
AATATCACATTCCACGGTACACACTAAAAGAAAAAT [XGTACX_site7653]	6.9
ATAACTTTTGCGCGTACACACATTTATCCTCTTTAT [CACACA_site209]	8.29
TCATGTAGTAAAAACTGTACAAATTATTTATCATGT [XGTACX_site1727]	6.53
GGGTATACCAATATAACACACATATATATATAATAT [CACACA_site450]	6.69
ATAAGCATACATATTACACACATATAACATCTATAT [CACACA_site7219]	6.97
AAATTATTAAAAAAGTGTACATATTTTTATAATACC [XGTACX_site5610]	6.35
TATTTTTTTTCAAAAAAGTTTATTTAGAACTAAATA [XGTACX_negctrl_site487]	5.79
TTAATCAAATTACTATGTACATAAAACATATAAGAA [XGTACX_site381]	6.85
ATAAATTGATTCAACACACACATATGTAGGAAGTTA [CACACA_site3253]	6.61
AAAAAAAAAAAAAGTACACACATACAGATAAATATA [CACACA_site5067]	6.46

Sequence	gcPBM binding intensity (ln)
CTTTTTCTTTTCCGGCGTACAGACTTAGTAGTAGAT [XGTACX_site2268]	6.69
ACTAATACATAAAAAAGTACAAATATGAGTATTAAC [XGTACX_site7281]	6.94
AATATTCAATATAAAGTGCATTATTGTGGACCTAAT	8.94
TATATAGCTAAAAACACACAAATATGTACACATAAA [CACACA_site7665]	6.83
TACATGCAAAAAATTCCACACACACCCCCACATATA [CACACA_site8329]	7.49
TACTTCATTCATTTTACACACATATAAACCCTTTTA [CACACA_site3229]	7.15
TAAAATATAGGAAATACATGCATATTAAATATTCCT [TGCATGCA_site1057]	6.11
ATAGTTAAAAAAAAAAAAAAAAAAAAAAGAGAGAGA [CACACA_negctrl_site1307]	6.36
ACAATAAAGAACAGTATGCACTTTTATGCATGCGTA	7.42
AAATATACATACATATGTACATATATATATATATAT [XGTACX_site8202]	9.24
ATGAATTAATCTAATCGTACAATAAGCATTATTATA [XGTACX_site2571]	6.25
GAATATGTAAAGAAAGGTACACATGAAAATATGTGT [XGTACX_site446]	6.09
TGTACCTACAAAATATGATATATTTTTATAAATTGT [XGTACX_negctrl_site498]	6.41
TAGAAAATCAGTTAAACACACACATAAAAAAAAAAA [CACACA_site8933]	6.4
TTCTTATTTGTACTAGTGCAATAGAAAATAAATAAA [GTGCAC_site9731]	9.74
TATATAATATATATATGTACACATTTGCAAACAATG [XGTACX_site6941]	8.64
AATACAATAAAAAAAAGTACACATGTATAAAAAATT [XGTACX_site8270]	6.85
AATATATCTTATTTAACACACACAAAGAAAATAGAA [CACACA_site9242]	7.34
TGTTATCAGAAAGCACGTACATATAATTATATATTC [XGTACX_site4188]	6.73
TATATATATATACATACATGCATATATATATATATA [TGCATGCA_site513]	9.41
ATAATAATATAAAATACACACCTATTATTTTTACAA [CACACA_site6069]	6.72
CCACATATACAAAACACACACACAACGTTTTAATAA [CACACA_site1978]	6.84
